In PubChem BioAssay AID1347165 (National Center for Advancing Translational Sciences (NCATS), 2019):
In all, about 220,000 compounds went through this assay and about 5,700 (2.6%) were called active. Inconclusive means that the source gave no clear call. Such entries were picked first, then a sample of the others. The call rests on the fitted dose curve; in most records, active means well fitted inhibition curve with a large enough effect; inconclusive means small, poorly fitted or top-dose-only effect; inactive means no such curve, though single readings can be large or run the other way. Where the call is inconclusive, the potency comes from a doubtful curve fit.
Further: nearly all actives have a fitted effect of over 70% in size.
Potency means the concentration at half of the fitted maximal effect; tags describe the fitted curve by direction and shape.

The molecules below were run against Lysine-specific demethylase 5B (Homo sapiens) (UniProt Q9UGL1) (assay: Primary screen for KDM5B Histone Demethylases FDH-coupled qHTS). Conditions: FDH-coupled NADH fluorescence (FDH is formaldehyde dehydrogenase); series mostly up to 57.7 µM.
Chain of UniProt Q9UGL1 (Q9UGL1 whole entry, looked up): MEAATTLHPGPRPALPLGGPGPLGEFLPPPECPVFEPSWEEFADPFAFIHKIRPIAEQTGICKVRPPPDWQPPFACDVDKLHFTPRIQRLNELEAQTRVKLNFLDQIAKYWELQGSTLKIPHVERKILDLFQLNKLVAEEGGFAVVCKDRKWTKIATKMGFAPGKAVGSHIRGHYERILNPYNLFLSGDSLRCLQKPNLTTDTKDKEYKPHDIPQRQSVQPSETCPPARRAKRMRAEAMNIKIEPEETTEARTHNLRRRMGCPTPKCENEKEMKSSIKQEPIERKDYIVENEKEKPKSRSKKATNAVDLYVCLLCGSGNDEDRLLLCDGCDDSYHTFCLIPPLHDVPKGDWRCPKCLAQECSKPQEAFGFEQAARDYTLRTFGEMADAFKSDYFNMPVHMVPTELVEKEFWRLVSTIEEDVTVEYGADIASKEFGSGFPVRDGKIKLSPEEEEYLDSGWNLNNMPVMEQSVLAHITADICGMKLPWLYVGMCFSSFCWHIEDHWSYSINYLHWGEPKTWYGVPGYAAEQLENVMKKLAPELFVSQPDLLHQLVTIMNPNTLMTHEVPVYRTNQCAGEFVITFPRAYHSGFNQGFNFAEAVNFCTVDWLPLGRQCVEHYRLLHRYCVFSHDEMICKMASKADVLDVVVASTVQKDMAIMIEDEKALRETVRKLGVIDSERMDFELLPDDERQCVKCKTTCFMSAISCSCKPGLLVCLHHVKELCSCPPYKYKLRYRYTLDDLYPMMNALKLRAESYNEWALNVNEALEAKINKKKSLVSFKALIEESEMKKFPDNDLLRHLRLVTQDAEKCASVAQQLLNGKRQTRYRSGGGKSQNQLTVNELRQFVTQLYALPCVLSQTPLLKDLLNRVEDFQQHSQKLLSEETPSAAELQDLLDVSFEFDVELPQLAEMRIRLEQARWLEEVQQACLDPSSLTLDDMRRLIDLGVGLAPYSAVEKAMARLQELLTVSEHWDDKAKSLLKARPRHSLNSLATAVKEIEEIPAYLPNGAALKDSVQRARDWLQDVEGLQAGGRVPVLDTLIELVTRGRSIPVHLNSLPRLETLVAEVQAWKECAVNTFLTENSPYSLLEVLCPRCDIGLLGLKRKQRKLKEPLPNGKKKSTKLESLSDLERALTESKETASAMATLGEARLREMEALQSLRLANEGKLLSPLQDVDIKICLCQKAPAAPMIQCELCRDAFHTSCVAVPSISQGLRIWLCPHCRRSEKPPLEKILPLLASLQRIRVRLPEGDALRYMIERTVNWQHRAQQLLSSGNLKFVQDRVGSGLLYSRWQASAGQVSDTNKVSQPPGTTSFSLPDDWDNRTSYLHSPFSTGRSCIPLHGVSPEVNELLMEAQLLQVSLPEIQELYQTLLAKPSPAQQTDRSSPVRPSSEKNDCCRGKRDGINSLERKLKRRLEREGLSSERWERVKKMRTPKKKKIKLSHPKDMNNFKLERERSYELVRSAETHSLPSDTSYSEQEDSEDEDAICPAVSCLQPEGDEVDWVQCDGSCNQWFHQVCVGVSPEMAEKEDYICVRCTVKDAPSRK
Summary of the method: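 Coupled FDH/NAD⁺ fluorescence readout. KDM5BΔAP 200 nM final; compound titration, 10 min RT preincubation; substrate mix 12.5 µM H3K4me3, 25 µM 2-OG, 50 µM Fe(II), 100 µM ascorbate, 0.25 mM NAD⁺, 0.25 U/mL FDH; ΔRFU over 30 min.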
For `O=C(O)C(c1c[nH]c2ccc(CO)cc12)N1CCN(Cc2cccs2)CC1` (configuration not stated), the Potency was “inactive”. In the case of `O=C(CCC(=O)c1cccs1)Nc1cccc(N2CCCC2=O)c1`, the Potency is reported as “inactive”. In the case of `CCOc1cccc(CN2CCC3(Cc4ccccc4CNC3=O)C2)c1` (configuration not stated), the Potency is reported as “inactive”. With `COCCCNc1oc(-c2ccccc2Cl)nc1C#N` the Potency was inconclusive: 39.8 µM [inhibitor, single point]. With `O=C(C[C@@H]1O[C@H](CNC(=O)c2cccc(F)c2)[C@@H](O)[C@H]1O)NC1CC1` the Potency was inconclusive: 35.5 µM [inhibitor, partial curve, poor fit]. `CCc1ccc2[nH]c(C)c(CC(=O)NCc3ccc(C)o3)c2c1` was tested, and the Potency was “inactive”. `CCOc1ccc(Cl)cc1CNCc1cccnc1` was tested, and the Potency was “inactive”. With `Cc1nnc(NC(=O)c2cc(-c3cccc(C)c3O)n[nH]2)s1` the Potency was “inactive”. `CCN(C(=O)c1cc2c(s1)-c1ccccc1SC2)c1ccccc1C` was tested, and the Potency was inconclusive: 28.2 µM [inhibitor, partial curve, poor fit]. In the case of `Cc1ccc(-c2nnc3ccc(Nc4cccc(N(C)C)c4)nn23)nc1`, the Potency is reported as inconclusive: 28.2 µM [inhibitor, partial curve]. For `Cc1cc(COc2ccc(S(=O)(=O)c3ccccc3)cc2)on1`, the Potency was “inactive”. With `O=C(Cc1ccc(OC(F)(F)F)cc1)N1CCC([C@@H]2CNC[C@H]2CO)CC1` the Potency was “inactive”. `Cc1cc(=O)oc2cc(O[C@@H]3O[C@H](CO)[C@@H](O)[C@H](O)[C@H]3O)ccc12` was tested, and the Potency was inconclusive: 28.2 µM [inhibitor, partial curve, poor fit]. `CC(C(=O)N(C)C1(C#N)CCCCC1)N(C)CC(=O)Nc1cccc(F)c1` (configuration not stated) was tested, and the Potency was “inactive”. `O=C(OCC(=O)N1CCOCC1)c1ccccc1-c1nc2ccccc2s1` was tested, and the Potency was “inactive”. For `CN1Cc2ccc(NCc3ccccc3)nc2C(C)(C(=O)NCc2cccnc2)C1` (configuration not stated), the Potency was inconclusive: 31.6 µM [inhibitor, partial curve, poor fit]. For `CC(C)Oc1ccccc1-c1cc(C(=O)O)c2ccccc2n1`, the Potency was “inactive”. For `O=C(CCC1CCCN(Cc2cnc(-c3ccccc3)s2)C1)Nc1ccccc1F` (configuration not stated), the Potency was inconclusive: 39.8 µM [inhibitor, single point]. `CN(CCc1ccccn1)c1ncccc1CNC(=O)c1cc(C2CC2)no1` was tested, and the Potency was “inactive”. In the case of `CCOc1ccc2c(c1)S/C(=C\c1cccc(Oc3ccc(Cl)cc3)c1)C(=O)N2`, the Potency is reported as “inactive”. `COc1ccc(/C=C/C(=O)c2ccc(C#N)cc2)cc1F` was tested, and the Potency was “inactive”. For `Cc1ccc(NC(=O)c2ncoc2-c2cccc(C)c2)cc1`, the Potency was inconclusive: 39.8 µM [inhibitor, partial curve, poor fit]. With `CCC(C)Sc1ccc(N)c(C(F)(F)F)c1` (configuration not stated) the Potency was “inactive”. With `Cc1ccnc(NC(c2cccc(O)c2)c2ccc3ccc(C)nc3c2O)c1` (configuration not stated) the Potency was inconclusive: 15.8 µM [inhibitor, partial curve, poor fit]. For `CN(C)c1ccc(-c2cc3c(ccn3C)c(C(=O)NCc3cccnc3)n2)cc1`, the Potency was inconclusive: 31.6 µM [inhibitor, partial curve, poor fit]. For `Oc1ccccc1CNC1(Cc2cc(CN3CCOCC3)on2)COC1`, the Potency was inconclusive: 39.8 µM [inhibitor, partial curve, poor fit]. In the case of `COc1cc(C)cc2oc(=O)c(CC(=O)Nc3cccc(C(C)=O)c3)c(C)c12`, the Potency is reported as inconclusive: 2 µM [inhibitor, full curve, poor fit]. In the case of `O=C(CN1C(=O)c2ccccc2S1(=O)=O)NCc1ccc(F)cc1`, the Potency is reported as “inactive”. In the case of `CCCCN1C(=O)[C@@H]2C[C@@H](O)CN2C2(CN(Cc3ccncc3)C2)C1=O`, the Potency is reported as inconclusive: 31.6 µM [inhibitor, partial curve, poor fit]. `CCOC(=O)c1c(-c2ccccc2)oc2ccc(NS(=O)(=O)c3ccc(C)cc3)cc12` was tested, and the Potency was inconclusive: 35.5 µM [inhibitor, partial curve, poor fit]. For `O=C(N[C@H]1CCN2C(=O)c3cc(-c4cccc(C(F)(F)F)c4)ccc3NC(=O)[C@@H]2C1)c1ccncc1`, the Potency was “inactive”. In the case of `COc1ccccc1Cn1c(C2CC(=O)N(c3ccccc3OC)C2)nc2ccccc21` (configuration not stated), the Potency is reported as inconclusive: 1.41 µM [inhibitor, full curve, poor fit]. `NC(=O)COC(=O)c1cc(-c2cccs2)nc2ccccc12` was tested, and the Potency was inconclusive: 25.1 µM [inhibitor, partial curve, poor fit]. In the case of `O=C(CSC1=Nc2ccccc2C2=NC(Cc3ccccc3)C(=O)N12)Nc1cccc(Cl)c1` (configuration not stated), the Potency is reported as inconclusive: 31.6 µM [inhibitor, partial curve, poor fit]. In the case of `Cc1ccncc1-c1c(C)nn2c1N(Cc1ccc(C(=O)O)cc1)CCC2`, the Potency is reported as inconclusive: 28.2 µM [inhibitor, partial curve, poor fit]. For `CC(=O)N1CCC(Nc2ncccc2-c2cc(-c3ccccc3)nc3c(C)noc23)CC1`, the Potency was active: 20 µM. `COc1ccc(OC)c(C2CC(=O)Nc3c2c(=O)n(C)c2ncnn32)c1` (configuration not stated) was tested, and the Potency was inconclusive: 1.58 µM [inhibitor, full curve, poor fit]. For `O=C1CCC2(CNC(=O)C3CCOCC3)CCCC=C2N1` (configuration not stated), the Potency was “inactive”. `COc1cc(/C=C(/C#N)c2nc3ccccc3o2)ccc1O` was tested, and the Potency was “inactive”. For `O=C(CSc1nc2cc(Cl)ccc2o1)NCc1ccco1`, the Potency was inconclusive: 5.62 µM [inhibitor, full curve, poor fit]. For `CCn1cc(CN2CCCC23CCN(c2ccc(C(F)(F)F)cn2)CC3)c(C)n1`, the Potency was inconclusive: 17.8 µM [inhibitor, partial curve, poor fit]. `COCC(=O)Nc1ccc([C@@H](O)[C@H]2COCC(=O)N2)cc1` was tested, and the Potency was “inactive”. `CCCC/C(=N\NC(C)=O)c1ccccc1` was tested, and the Potency was “inactive”. For `CC(C(=O)N1CCn2nc(Cc3ccccc3)cc2C1)c1ccc(O)cc1` (configuration not stated), the Potency was “inactive”. With `CCOc1ccccc1CNS(=O)(=O)c1ccc(-c2cnc(C3CC3)o2)cc1` the Potency was inconclusive: 15.8 µM [inhibitor, partial curve, poor fit]. With `Cc1cnc(-c2ccccc2)n1C1CCNCC1` the Potency was “inactive”. `Cc1cc(CNC(=O)COc2cccc3ccccc23)c2ccccc2n1` was tested, and the Potency was “inactive”. With `Cc1ccc(-n2nc(CO)c(C(=O)NCc3cccnc3)n2)cc1C` the Potency was inconclusive: 2.51 µM [inhibitor, full curve, poor fit]. For `COCCN1CC2(CCC1=O)CCN(C(=O)c1c(C)cccc1C)CC2`, the Potency was “inactive”. In the case of `COc1ccc(-c2cc3nc4c(c(=O)n3[nH]2)CN(C(=O)CCc2ccccc2)CC4)cc1`, the Potency is reported as active: 5.62 µM. With `Cc1noc(C)c1CCCNC(=O)c1ccc(N2CCN(CC3CC3)CC2)nc1` the Potency was active: 28.2 µM. With `COc1ccc2[nH]c3c(c2c1)CCNC31CCN(C(=O)c2ccsc2)CC1` the Potency was inconclusive: 10 µM [inhibitor, partial curve]. For `Cc1ccc(C)c(C(=O)N2CC=C(c3c[nH]c4ccccc34)CC2)c1`, the Potency was inconclusive: 22.4 µM [inhibitor, partial curve, poor fit]. For `CCCCCOc1cc(OCCCCC)c2c(-c3ccccc3)cc(=O)oc2c1`, the Potency was “inactive”. With `O=C(NCCN1CCOCC1)c1cc(-c2ccc(Cl)cc2)nc2ccccc12` the Potency was inconclusive: 28.2 µM [inhibitor, partial curve, poor fit]. With `CCCc1nnc(C[C@@H]2C[C@@H](C(C)C)[C@H](CN3CCC[C@H]3CO)C=C2C)o1` the Potency was inconclusive: 28.2 µM [inhibitor, partial curve]. For `O=C(NCc1ccc(Cl)nc1)c1cccn2cncc12`, the Potency was inconclusive: 31.6 µM [inhibitor, partial curve]. For `O=C1[C@@H]2CSCN2C(=O)CN1Cc1ccccc1F`, the Potency was “inactive”. For `COC(=O)c1cccc(Nc2c(-c3ccc(OC)cc3)nc3nc[nH]n23)c1`, the Potency was inconclusive: 12.6 µM [inhibitor, partial curve, poor fit]. For `NC(=O)Cc1c[nH]c2ncc(-c3cccc(N4CCOCC4)c3)cc12`, the Potency was “inactive”. With `COc1cc(Cl)c(NC(=O)C2CCN(c3nccnc3Oc3ccc(C)cc3)CC2)c(OC)c1` the Potency was inconclusive: 25.1 µM [inhibitor, partial curve, poor fit]. With `O=C(Nc1cccc(C(F)(F)F)c1)c1cnc2c(c1)N(C(=O)CCc1ccccc1)CCC2` the Potency was inconclusive: 22.4 µM [inhibitor, partial curve]. With `CCc1noc(CSc2nc(-c3ccco3)nc3ccccc23)n1` the Potency was inconclusive: 28.2 µM [inhibitor, single point]. With `N#Cc1nc(COc2ccccc2)oc1NCCc1ccccc1` the Potency was “inactive”. In the case of `COc1ccccc1N1CCCc2ncc(C(=O)Nc3cccc(C(F)(F)F)c3)cc21`, the Potency is reported as active: 31.6 µM. With `CC(C)c1cc(C(=O)Nc2ccc(Cl)c(C(F)(F)F)c2)nn1C1CCS(=O)(=O)C1` (configuration not stated) the Potency was “inactive”. For `CCc1ccc(S(=O)(=O)c2cnc3ccc(OC)cc3c2N2CCCC(C)C2)cc1` (configuration not stated), the Potency was inconclusive: 28.2 µM [inhibitor, single point]. With `O=C(c1nc(-c2ccc(F)cc2)no1)N1CCN(c2ccc(Cl)c(Cl)c2)CC1` the Potency was “inactive”. For `O=c1cc(-c2cnccn2)oc2c(Nc3cccc(OC(F)(F)F)c3)nccc12`, the Potency was inconclusive: 25.1 µM [inhibitor, single point]. In the case of `Cc1noc(-c2cn(C3CCN(C(=O)c4cccc(Br)c4)C3)nn2)n1` (configuration not stated), the Potency is reported as inconclusive: 7.08 µM [inhibitor, single point]. `CC(=O)N[C@@H]1CN(Cc2cc(=O)n3[nH]cnc3n2)C[C@H]1c1ccc(C)o1` was tested, and the Potency was active: 22.4 µM. With `Cc1ccc(Cl)cc1-n1ncc2c(NC3CCCCC3)ncnc21` the Potency was inconclusive: 25.1 µM [inhibitor, single point].
